Laboratory results from the GPR68 mutational scans of Howard et al. (2025).
Scores with a large standard error are left out. Not listed are two conditions whose scores span a narrow range. In variant names, del marks residues removed and ins residues inserted between the two positions. For some assays here: How much ogerin was present is not stated here.

B1: GPR68, Q15743 (parent)
chain: MGNITADNSSMSCTIDHTIHQTLAPVVYVTVLVVGFPANCLSLYFGYLQIKARNELGVYLCNLTVADLFYICSLPFWLQYVLQHDNWSHGDLSCQVCGILLYENIYISVGFLCCISVDRYLAVAHPFRFHQFRTLKAAVGVSVVIWAKELLTSIYFLMHEEVIEDENQHRVCFEHYPIQAWQRAINYYRFLVGFLFPICLLLASYQGILRAVRRSHGTQKSRKDQIQRLVLSTVVIFLACFLPYHVLLLVRSVWEASCDFAKGVFNAYHFSLLLTSFNCVADPVLYCFVSETTHRDLARLRGACLAFLTCSRTGRAREAYPLGAPEASGKSGAQGEEPELLTKLHPAFQTPNSPGSGGFPTGRLA

Tests used:
[1] = variants of: B1; assay: cAMP reporter score (Enrich2 score, wild type = 0); higher = more signal; HEK293T, FACS bins
[2] = variants of: B1; assay: surface expression score (Enrich2 score, wild type = 0); higher = more signal; HEK293T, FACS bins

| Variant | cAMP reporter score ([1]; pH 5.5) | cAMP reporter score ([1]; pH 6) | cAMP reporter score ([1]; pH 6, modulator: ogerin) | cAMP reporter score ([1]; pH 6.5, modulator: ogerin) | surface expression score [2] |
| --- | --- | --- | --- | --- | --- |
| T134A | 0.529 | -1.07 | 0.886 | -0.51 | -2.55 |
| T134C | 1.02 | -0.723 | 0.331 | -0.83 | -2.35 |
| T134D | -0.222 | 0.616 | -0.762 | -0.792 | -2.56 |
| T134E | 0.262 |  | -1.48 | -1.09 | -2.31 |
| T134F | -0.407 | -0.233 | -1.7 | -0.437 |  |
| T134G | -0.367 | -1.28 | -1.61 | -1.39 | -2.17 |
| T134H | -1.52 | -0.572 | -1.35 | -1.25 | -2.64 |
| T134I | -0.844 | -1.19 |  |  | -3.2 |
| T134K | -0.547 | -1.25 | -1.18 | -0.603 | -1.75 |
| T134L | -1.52 | -1.53 | -0.337 | -2.09 |  |
| T134M | -1.46 | -0.769 | -1.27 | -1.38 | -2 |
| T134N | 0.633 |  | 0.902 | 0.243 | -0.366 |
| T134P | -2.45 | -1.7 |  | -0.959 | -2.95 |
| T134Q | 0.507 | -0.894 | -0.069 | -0.74 | -1.75 |
| T134R | -0.431 | -0.415 | -0.028 | -0.513 | -1.42 |
| T134S | 0.43 | -0.163 | 1.38 | 0.543 | -0.245 |
| T134V | -0.701 | 0.33 | -2.46 | -0.935 | -1.69 |

| Variant | cAMP reporter score ([1]; pH 5.5) | cAMP reporter score ([1]; pH 6) | cAMP reporter score ([1]; pH 6, modulator: ogerin) | cAMP reporter score ([1]; pH 6.5, modulator: ogerin) | surface expression score [2] |
| --- | --- | --- | --- | --- | --- |
| T134W | -2.48 | -1.47 | -1.13 | -1.28 | -1.42 |
| T134Y | -0.555 | -1.08 | -1.11 | -1.57 | -2.65 |
| T134_K136del | -1.22 | -1.07 | -1.36 | -1.9 | -2.73 |
| L135_A137del | -0.797 | -0.683 | -0.62 | -0.961 | -3.15 |
| L135_K136del | -1.14 | -1.11 | -2 | -1.29 | -2.35 |
| L135_K136insGSG | -1.71 |  |  | -0.98 | -2.43 |
| L135del | -0.391 | -0.806 |  | -0.95 |  |
| K136_A137insG | -1.57 | -1.14 | -1.86 | -1.54 | -2.95 |
| A137_A138del | -1.11 | 0.476 | -0.303 | 0.636 | -0.921 |
| A137_V139del | -1.47 | -1.17 | -0.651 | -0.44 | -2.62 |
| A138_G140del | -1.41 | -0.484 |  |  | -4.37 |
| A138_V139insGS | -2.01 | -0.895 |  | -1.11 | -1.61 |
| A138_V139insGSG | -1.63 |  | -1.25 | -0.85 | -2.04 |
| V139A | 0.189 | 0.081 | 0.063 | -0.659 | -0.051 |
| V139C | -0.48 | -1.02 | -0.289 | 0.198 | -0.282 |
| V139E | -0.329 | -1.92 | -1.99 | -1.5 |  |
